B1: LINE1-mini (parent)
chain: GGCAGAGCUCAACACAGCGUGGCAAAGUGGCUGUGGCUAGACUGCC

The source gives no read counts; variants with many changes may rest on few reads.

Variants of B1 are the subject of the data set. Briefly: self-cleavage, relative activity (ratio to wild type); higher = more cleavage; in vitro, sequencing; the parent is a self-cleaving ribozyme.
Consider GGCAGAGGUCAACUCAGCGUGGCAAAGUGGCUGUGGCUAUACUGCC [C8G A14U G40U], for which the self-cleavage came to 0.03.
As for CGCAGAGCUCAACACAUCGUGCCAAAGUGGCUGUGGCUCGACUGCC [G1C G17U G22C A39C], the self-cleavage was 0.03.
On to UGCAGAGCUCGACACAGCGUGGCAAAGUGGCUGUGGCUAGAACGCC [G1U A11G C42A U43C], for which the self-cleavage amounted to 0.
Turning to GGCAGAGGUCAACACAGCGUGGCAAAGUGGGUUUGGCUGAACUGUC [C8G C31G G33U A39G G40A C45U], the self-cleavage is 0.
Then GGCAGAGCUCAACACAGCGUAGCAAAGUGGCUGUGGGUAGACCGCC [G21A C37G U43C], with 0.07.
In the case of GUCAGAGCUCAACACAGCGUGGCAAAGUUGCUGUGGCUACACUGCC [G2U G29U G40C], the self-cleavage worked out at 0.06.
For the variant AGCAGAGCUCCACACAGCGUUGCAAAGUGGCUGUGGCUAGACUGAC [G1A A11C G21U C45A], the self-cleavage is 0.01.
Take GGCAGAGCUCAACACACCGUGGCAAAGUGUCUGUGGCUAUAUUGCC [G17C G30U G40U C42U]: the self-cleavage was determined as 0.1.
With GGCAGAGCUCAACACAGCGUGGCUAAAUGGCGGUGGCUAGACUGCC [A24U G27A U32G] the figure was 0.1; with AGCAGUUUUCAACACAGCGUGGCAAAUUGGCUAUGGCUAGACUGCC [G1A A6U G7U C8U G27U G33A], 0.38.
GGCAGAGCUCAAAACAGCGUUGGAAAGUGGCUGUGGCUAGACUGCC [C13A G21U C23G]: the self-cleavage came to 0.09.
Turning to GGCAGGGCUCAACACAGCGUGGCAAAUUGGCUGUGGCUAGACUUUC [A6G G27U G44U C45U], the self-cleavage was 0.22.
Then GGCAAAGCUCAACACAGCGUGGCAAAGCGGCUGCGGCUAGACUGCC [G5A U28C U34C], with 0.05; and GGCAGAGCUAAACACAGCGUGGCAAAUUGGCCGUGGCUAGACUGCC [C10A G27U U32C], with 0.01; and GGAAGAGCGCAACACACCGUGGCAAAGUGGCUGUGGCUAGACUGCC [C3A U9G G17C], with 0.01.
With CGCAGAACUCAACACUGCGUGGCAAAGUGGCUGUGGCUAGACUGCC [G1C G7A A16U] the figure was 0.02; with AGCGGAGCUCAACACAGCGUGGCACGGUGGCUGUGGCUAGACUGCC [G1A A4G A25C A26G], 0.06; with GGCAAAGCUCAACUCAGCGUGGCAAAGUUGCUGUGGCUAGAUUGAC [G5A A14U G29U C42U C45A], 0.01.
As to GAUAGCGCUCAACACAGUGUGGCAAAGUGGCUGUGGCUAGAAUGCC [G2A C3U A6C C18U C42A], the self-cleavage worked out at 0.28.
With GGCAGAGCGCAACACAGCGUGGCUAAGUUGUUGUGGCUAGACUGCC [U9G A24U G29U C31U], the self-cleavage came out at 0.01.
On to GGCAGAGCUCAACUCAGCGUGGCAAAGUCGCUGGGGCUAGACUGCC [A14U G29C U34G], for which the self-cleavage was 0.17.
As for GGCAGAGGUCAACACAGCGUGGCAAAGUACCUGCGCCUAGAAUGAC [C8G G29A G30C U34C G36C C42A C45A], the self-cleavage was 0.01.
GGCAGAGCUCAGAACAGCGUGGCAAAGUGACAGUGGCUAGACUGCC [A12G C13A G30A U32A]: the self-cleavage worked out at 0.02.
For the variant GGCAGAGCUCAACACAACGUGGCAUAUUGGCUGUGGCUAGACUGCC [G17A A25U G27U], the self-cleavage stood at 0.24.
Consider GGCUGAGCUCAACAUAGCGUGGCAAAGCGGCUGUGGCUAGACUGCC [A4U C15U U28C], for which the self-cleavage was 0.16.
For the variant GGUAGAGCUCAACAAAGUGUGGCAAAGUGGCUGCGGCUAGACUGCC [C3U C15A C18U U34C], the self-cleavage came out at 0.05.
GCCAGAGCUCAACACAGCGUUGCAAAGUGGCUGUGGCUAGAAAGCC [G2C G21U C42A U43A]: the self-cleavage was 0.12.
In the case of GGCAGAGCUCAACAGAGCGUGGCGAAGAGGCUGUGGCUAGACUGCC [C15G A24G U28A], the self-cleavage was determined as 0.02.
In the case of GGCAGAGGUCAACACAGCGUGACAAACUGGCUGUGGCUAGACUGCC [C8G G22A G27C], the self-cleavage was determined as 0.02.
In the case of GGCAGAGCUCAAAACAGCGUGGCCAAGUUGCUGUUGCUAGACUACC [C13A A24C G29U G35U G44A], the self-cleavage is 0.29.
As to GGCAGAGCUCGACACAGGGUGGCAAAGUGGCUGUGGCUAGACUGCU [A11G C18G C46U], the self-cleavage worked out at 0.01.
Then GGCAGAGCUAAACACAGCGUCGCAAAGUGGCUUUGGUUAGACUGCC [C10A G21C G33U C37U], with 0; and UGAAGAGCUCAACACAGCGUGGCCAAGUUGCUGUGGCUAGAGUGCC [G1U C3A A24C G29U C42G], with 0.21.
As to GGUAGAGCUUAACACAACGUGCCAAAGUGACUGUGGCUAGAAUGCC [C3U C10U G17A G22C G30A C42A], the self-cleavage was 0.02.
Consider GGCAGAGAUCAACACAGCGUGGCAAAGUGGAUGUGGCUAGCCUGCC [C8A C31A A41C], for which the self-cleavage worked out at 0.1.
Turning to GGCAGAGCUCAACACAGCGUGGCAGAGUGGUUGUGGCAAGACUGCC [A25G C31U U38A], the self-cleavage is 0.44.
With GGCAGAGCUGAACACAGCGUGGCAAAGUGGCUGUGGCUAGUCUUGC [C10G A41U G44U C45G], the self-cleavage was 0.01.
Turning to GCAAGAGCUCAACACAGCGUCGCAAAGUGGCUGUGGCUAGACUGCC [G2C C3A G21C], the self-cleavage is 0.11.
With GGCCGUGCUCAACAGAGCGUGGCAAAGUGGCUGUGGCUACACUGCC [A4C A6U C15G G40C], the self-cleavage was found to be 0.01.
For GCCAGAGCUCAACACUGCGUGGGUAAGUGGCUAUGGCUAGACUACC [G2C A16U C23G A24U G33A G44A], the self-cleavage worked out at 0.09.
With GGCAGAGCUCAACACAGCCUGGAAAAGUGGCUGUGUCUAGACUGCC [G19C C23A G36U] the figure was 0.02.
As for GUAAGAGCUCAACGCAGCGUGGCAAAGUGGCUGUGACUAGACUGCC [G2U C3A A14G G36A], the self-cleavage was found to be 0.11.
On to GGCCGAGCUCAACACAGCGUGGCUAAGUCGCUGUGGCUAGACUGCC [A4C A24U G29C], for which the self-cleavage turned out to be 0.1.
Regarding GGCAGAGCUCAACUCAGCGUGGCAAAGUGGCAGUGGCUUGUCUGCC [A14U U32A A39U A41U], the self-cleavage is 0.03.
For GGCAGAGCUCAUCACAGCGUGGUAAAGCGGCUGUGGCUAGACUGCC [A12U C23U U28C], the self-cleavage amounted to 0.03.
Regarding GGCAGAGAUCAACACUGCGUGGCAAAGUGGCUGUGGCUAGACAGCC [C8A A16U U43A], the self-cleavage came to 0.08.
In the case of AGAAGAGCUCAACACAGCGUAGCAAAGUGGCUGUGGCAAGGCUGCC [G1A C3A G21A U38A A41G], the self-cleavage stood at 0.56.
For the variant GGCAGAGCCCAACACAGCGUGGCAAAGUGGUUCCGGCUAAAAUGCC [U9C C31U G33C U34C G40A C42A], the self-cleavage stood at 0.02.
UGCAGAGCUCAACACAGCGUGGCAAAGUGGCUGUGGAUCGACUGCC [G1U C37A A39C]: the self-cleavage was 0.26.
On to GGCAGAGCUCAACAAAGCGUGGCAAAGUGUCUUUGGCUAGACUGCC [C15A G30U G33U], for which the self-cleavage came out at 0.19.
Consider GUCAGAGCUCAACACAGUGUGGCAAAGUUGCUGUGGCUAGAGUGCC [G2U C18U G29U C42G], for which the self-cleavage came to 0.05.
Regarding GGCAGAACUCAACACCGCGUGGCAGAGUGGCUGUGGCUAGACUGCC [G7A A16C A25G], the self-cleavage is 0.02.
For GGCAGGGCUCAACACAGCGUGGCAAAGCCGCUGUGGCUAGACUACC [A6G U28C G29C G44A], the self-cleavage turned out to be 0.01.
For GGCAGAGCUCAACACAGCGUGGGAAAGUGGCUGUGGCUCGAUUGCU [C23G A39C C42U C46U], the self-cleavage was 0.05.
With GGCAGAGCUCCACACAGCGUGGCAAAGAGGCUGUGGCUACACUGCC [A11C U28A G40C] the figure was 0.03.
Take GGCAGAGCUCCACACAGCGUGGAAAAGUUGCUGUGGCUAGACUACC [A11C C23A G29U G44A]: the self-cleavage came out at 0.

The values above are taken from the RNAGym collection of RNA variant scans (doi:10.7554/elife.90254).
